Measurements: PMC10801813, “In silico protein interaction screening uncovers DONSON’s role in replication initiation” (Science (New York, N.Y.), 2023)
Results are given in words; binding and its absence hold for the method and conditions named. Binding seen in cells or lysates may run through a third protein. Some binding calls cover weakened binding; strength is not graded here.

Target: T1, Endogenous GINS of Xenopus nucleoplasmic egg extract (Xenopus laevis (endogenous in egg extract)) (UniProt Q7ZT47+Q7ZT46+Q7ZT01+Q7ZT48)
T1 sequence 1: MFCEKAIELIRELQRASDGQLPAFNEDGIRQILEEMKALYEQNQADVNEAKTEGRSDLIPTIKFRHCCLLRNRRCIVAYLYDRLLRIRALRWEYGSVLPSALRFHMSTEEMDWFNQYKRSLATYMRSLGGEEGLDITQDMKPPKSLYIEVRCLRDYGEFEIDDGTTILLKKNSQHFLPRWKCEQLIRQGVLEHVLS
T1 sequence 2: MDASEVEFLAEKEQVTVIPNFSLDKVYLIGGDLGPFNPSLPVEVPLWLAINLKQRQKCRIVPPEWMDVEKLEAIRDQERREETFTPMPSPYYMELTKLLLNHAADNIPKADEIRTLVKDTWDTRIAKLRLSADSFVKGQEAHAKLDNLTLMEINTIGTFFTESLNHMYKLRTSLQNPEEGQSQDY
T1 sequence 3: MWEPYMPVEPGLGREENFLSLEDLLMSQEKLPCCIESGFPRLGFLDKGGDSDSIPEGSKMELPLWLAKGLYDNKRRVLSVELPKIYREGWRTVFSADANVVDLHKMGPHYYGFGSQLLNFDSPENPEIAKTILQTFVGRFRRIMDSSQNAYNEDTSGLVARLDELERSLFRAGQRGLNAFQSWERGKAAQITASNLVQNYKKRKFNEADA
T1 sequence 4: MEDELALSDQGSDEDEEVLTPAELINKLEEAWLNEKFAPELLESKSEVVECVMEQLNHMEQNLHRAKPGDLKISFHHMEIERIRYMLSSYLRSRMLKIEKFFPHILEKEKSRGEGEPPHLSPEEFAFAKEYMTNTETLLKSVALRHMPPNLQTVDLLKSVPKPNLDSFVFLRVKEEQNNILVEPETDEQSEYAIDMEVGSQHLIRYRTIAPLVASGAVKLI
Experiment: co-IP; endogenous GINS precipitated from 30% NPE with anti-PSF3 antibody cross-linked to Dynabeads Protein A, 1 h 4°C, immunoblot

binding: binds
B1: Recombinant FLAG-tagged DONSON, wild type (natural protein, Xenopus laevis, UniProt Q5U4U4 1-579, looked up)
chain: MAELLPGYSPSFKKPSEILRLSRRRSRSEASKTGLSPFSPGDVIKRVPGLRPFSPGPNKGAGVKRRNPFASLENTVCSPVKRRAETVAEYGAASLEPRALSAVRPSCLGQDSPEPPQFNSVEDVIWGDPLAADADPLVKTESPEKPAPACEIPKGSVTFPADWSLKTRLLFTSSHSFSWADHLKAQEEAQGLVMQCRATAVNLPHSIQEPKLSTDLRCAFQQSLVHWIHPSLPWVQLFPRIGVDRKMAGKNTPWSQDESLQQVLMSEWALSFTSLYNLLKAKLCPYFYVCTYQFTVLFRAAGLAGSDVITAVMSPTTRGLREAMKNEGITFSQPLVEDDTGKKQKKPEAASQGDINPEKENGTAEADEASDESDEDESFSWLEEMGVEDKIKKPDSISIKLRKEKNEVKLDHKPESVVLVKGTNTFTLLNFLINCKSIVAAAGLQAGLPPTLLSPVAFRGATMHALKARSVNVKTRVNSGYKDQFSLEITGPIMPHSLHSLTMLLQSAQRGSFSAGLYTHEPTAVFNTPIHSQAVKEISADLQNCGLHPCTVEQLTQVNELGKLSLRHLEMTDYRYTWK
notes: Xenopus DONSON (Downstream Neighbor of SON); also called rFLAG-DONSON; FLAG-DONSON; source: E. coli Rosetta (DE3) pLysS, purified (Glutathione Sepharose, PreScission cleavage, Superdex 200); not shown: GST, N-terminal, cleaved
